In PubChem BioAssay AID1508642 (National Center for Advancing Translational Sciences (NCATS), 2021):
Out of some 43,000 compounds screened, about 200 (0.47%) were called active. About 12% were inconclusive and are not listed. Calls come from the whole dose curve; as a rule, active = well fitted cell-killing curve with a large enough effect; inconclusive = small, poorly fitted or top-dose-only effect, or effect the other way; inactive = flat fitted curve, though single readings scatter. The list shows a part of the results.

Test: Cell viability qHTS assay in S16 Pmp22-F2sN cells; note: nearly all actives have a fitted effect of over 65% in size
Settings: S16 Pmp22-F2sN Schwann cells viability, CellTiter-Glo, 24 h; series mostly up to 57.5 µM; activity change, negative = cytotoxicity: at the top concentration
Method in brief: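 S16 Pmp22-F2sN Schwann cells (500-1,000/well) in phenol-red-free DMEM with 10% FBS received 23 nL compound by pin tool for 24 h at 37 °C. Viability was then read as CellTiter-Glo luminescence after 15 min at room temperature.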
% is set by controls: 0 for no effect and ±100 for the full control effect.

SMILES | activity change, negative = cytotoxicity
CCCn1c2ccccc2c2cnn(CC(=O)NCCc3ccc(S(N)(=O)=O)cc3)c(=O)c21 | inactive: 0.42%
Cn1c(NCc2cccc(Cl)c2)nc2ccccc21 | inactive: -19%
COCCNC(=O)CSc1c(C)cnc2c1c(=O)n(C)c(=O)n2C | inactive: 2.19%
Cc1ccc(NC(=O)Cn2cnc3c(oc4ccccc43)c2=O)cc1Cl | inactive: -7.92%
COc1ccc(NC(=O)CCCOc2cc(=O)n(C)c3ccccc23)c(OC)c1 | inactive: -23.2%
Cc1ccc(Cn2c(CO)cnc2SCc2ccc(F)cc2)cc1 | inactive: -15.7%
O=C(Nc1ccc(Cl)cc1Cl)c1cc(S(=O)(=O)NCc2ccc3c(c2)OCO3)ccc1F | inactive: 3.47%
CN(C)c1ccc(CNC(=O)C2CCN(c3nnc(-n4cccc4)s3)CC2)cc1 | inactive: 0.172%
CCOc1ccc(C(=O)Nc2ccc(-c3cc4ccccc4oc3=O)cc2)cc1Br | inactive: -4.28%
Cc1nn(CCC(=O)Nc2ccc(Cl)cc2)c(C)c1S(=O)(=O)N1CCCCC1 | inactive: -17%
COc1ccccc1Cn1cc(C(=O)c2ccccc2)c(=O)c2cc(OC)c(OC)cc21 | inactive: 11.1%
O=S(=O)(NCCS(=O)(=O)N1CCN(c2ccccc2)CC1)c1ccccc1 | inactive: 2.23%
COC(=O)c1ccc(NC(=O)C(C)Sc2nc(=O)cc(N)n2CCc2ccccc2)cc1 (configuration not stated) | inactive: -23.2%
CN(C1CCCCC1)S(=O)(=O)c1ccc2c(c1)c(=O)c(C(=O)N1CCN(c3ccccc3)CC1)cn2C | inactive: -0.375%
O=C(O)c1ccc(NC(=O)c2ccc(Cl)c(S(=O)(=O)N3CCCCCC3)c2)cc1 | inactive: 17.8%
Cc1ccc(NC(=O)CN2C(=O)CCSc3ccccc32)c(C)c1 | inactive: 13.3%
COc1ccc(CCNC(=O)c2ccc3c(c2)nc(C)n3-c2ccc(Br)cc2)cc1OC | inactive: 10.3%
Cc1nc2c3ccccc3nc(NNC(=O)CCC(=O)O)n2n1 | inactive: 8.49%
CCOC(=O)c1ccccc1NC(=O)CSc1nc(=O)[nH]c2c1CCCC2 | inactive: 2.18%
CSc1cccc(-n2nnc(-c3nsc(NC(=O)c4cccs4)n3)c2C)c1 | inactive: -14.4%
CCc1ccc(S(=O)(=O)c2nnn3c2nc(N(C)Cc2ccccc2)c2cc(Cl)ccc23)cc1 | inactive: 10.3%

SMILES | activity change, negative = cytotoxicity
COc1cccc(CNC(=O)Cn2c(=O)ccc3cc(S(=O)(=O)N4CCCC4)ccc32)c1 | inactive: 1.23%
CCN(CC)CCCNC(=O)c1cn(CC)c2ccc(S(=O)(=O)N3CCC(C)CC3)cc2c1=O | inactive: -7.63%
Cc1cc(=O)n(CC(=O)N2CCCCC2)c2c1c(C)nn2C | inactive: 7.33%
Cc1ccc(NC(=O)CN2C(=O)C(c3ccccc3)=NC23CCCCC3)cc1C | inactive: -13.9%
CCc1ccc2occ(CC(=O)N(Cc3ccccc3)C3CCS(=O)(=O)C3)c2c1 (configuration not stated) | inactive: 1.59%
COc1ccc(-n2c(C)nc3c(cnn3-c3ccc(C)c(C)c3)c2=O)cc1Cl | inactive: 0.469%
Cc1c(Cl)cccc1NC(=O)Nc1c[nH]c(=O)[nH]c1=O | inactive: 8.84%
CC1CCCCN1C(=O)CSc1nc(-c2ccccc2)no1 (configuration not stated) | inactive: 7.87%
COc1cc(/C=C(/C#N)c2nc(-c3cc4ccccc4oc3=O)cs2)ccc1O | inactive: 3.5%
CCOC(=O)C1=C(CN2CCC(C)CC2)NC(=O)NC1c1ccc(OC(C)C)cc1 (configuration not stated) | inactive: -9.92%
Cc1cc(C)c(NC(=O)c2cc(C)nc3c2c(C)nn3-c2cccc(F)c2)c(C)c1 | inactive: 1.57%
Cc1cc2oc(C(=O)N(Cc3ccc(Cl)cc3)Cc3ccco3)c(C)c2cc1Cl | inactive: 0.707%
CCN(CC)C(=O)c1c(NC(=O)c2ccccc2F)sc2c1CCC(C(C)(C)C)C2 (configuration not stated) | inactive: -5.43%
CCc1ccc(-c2nn(-c3ccc(OC)cc3)c3c2cnc2ccc(OC)cc23)cc1 | inactive: 13.2%
CCSc1ccccc1C(=O)N1CCN(c2nc3ccccc3s2)CC1 | inactive: -6.35%
Cc1ccc(C)c(NC(=O)CSc2nc3ccccc3nc2N2CCOCC2)c1 | inactive: -22.6%
CC(C)(C)OC(=O)N1CCC(c2c(C(=O)N3CCCCC3)cnn2-c2ccc(F)cc2)CC1 | inactive: -3.6%
COc1cccc(NC(=O)c2oc3ccc(S(=O)(=O)N(C)C4CCCCC4)cc3c2C)c1 | inactive: -2.07%
COC(=O)c1ccc(NC(=O)c2cnn(-c3ccc(Cl)cc3)c2C2CCN(C(=O)OC(C)(C)C)CC2)cc1 | inactive: -24.7%
COc1ccccc1C(=O)Nc1cccc(OCc2cc(=O)n3ccccc3n2)c1 | inactive: -5.98%
CCC1CCCCN1CCCNC(=O)c1cn(C)c2ccc(S(=O)(=O)N(C)C3CCCCC3)cc2c1=O (configuration not stated) | inactive: -29.2%

SMILES | activity change, negative = cytotoxicity
COc1cccc(N2CCN(C(=O)c3cccn3-c3nnc(N4CCCCC4)s3)CC2)c1 | inactive: -7.06%
O=C(CSc1nccn1Cc1ccc2c(c1)OCO2)Nc1ccccc1F | inactive: 5.8%
COc1cc(NC(=O)CCn2nc(C)cc2C)cc(OC)c1OC | inactive: -1.01%
CCC(C)n1c(SCC(=O)Nc2ccccc2C(=O)OC)nc2ccsc2c1=O (configuration not stated) | inactive: -14.1%
COc1cccc(CNC(=O)c2cccc(N3CCCS3(=O)=O)c2)c1 | inactive: -2.24%
CCc1ccc(NC(=O)C2CCCN(S(=O)(=O)c3ccc4c(c3)oc(=O)n4C)C2)cc1 (configuration not stated) | inactive: -2.51%
COCCCNC(=O)CCCn1c(SCC(=O)c2ccc(Br)cc2)nc2c(sc3ccccc32)c1=O | inactive: -0.285%
Cc1ccc(C(=O)NCC(c2ccc(Cl)cc2)N2CCCCC2)cc1 (configuration not stated) | inactive: 2.38%
CCOc1ccc(C(=O)N2CC(=O)Nc3ccc(C)cc3C2c2ccc(F)cc2)cc1OCC (configuration not stated) | inactive: 5.19%
CCN(C(=O)CSc1nc2ccccc2c2nc(CCn3c(C)nc4ccccc43)nn12)c1cccc(C)c1 | inactive: 9.65%
COc1cc(C(=O)NC2(C(F)(F)F)C(=O)NC(C)=C2C#N)cc(OC)c1OC (configuration not stated) | inactive: 1.88%
CCN(CC)S(=O)(=O)c1ccc2c(c1)N(CC(=O)N1CCN(c3cccc(C)c3)C(C)C1)C(=O)CO2 (configuration not stated) | inactive: 14.6%
Cc1cccc(NC(=O)CCn2cnnn2)c1 | inactive: -0.656%
COc1ccc(-c2csc3nc(-c4ccc(Cl)cc4)oc(=O)c23)cc1 | inactive: 5%
CCc1cccc(C)c1NC(=O)CN1CCN(Cc2ccccc2Cl)S1(=O)=O | inactive: -14.3%
O=C(Nc1ccc(-c2nc3cc(Cl)ccc3o2)cc1)c1cc(Br)ccc1Cl | inactive: 2.03%
Cn1c(=O)oc2cc(S(=O)(=O)NC(CC(=O)O)c3cccc(Br)c3)ccc21 (configuration not stated) | inactive: 7.95%
COc1ccc(NC(=O)CSc2nnc(N)s2)cc1 | inactive: 1.59%
CC(=O)c1ccc(N2CCN(C(=O)Nc3ccc(C)cc3)CC2)cc1 | inactive: -3.28%
Cc1ccc(Nc2c(-c3ccc(N4CCOCC4)cc3)nc3ccc(C)cn23)cc1 | inactive: 8.62%
